Experimental data published in paper PMC6338798.
These are yes or no findings as the source states them, for the method shown. In cells and extracts the contact can be indirect. Some results given as binding are weak or reduced against the parent protein; the word gives no strength. For part of these data: Tags and fused reporters may be left off the sequences shown. One block for each substance: values may come before it.

Amino acid sequences for entries named in this document (tags omitted).
UniProt P35222: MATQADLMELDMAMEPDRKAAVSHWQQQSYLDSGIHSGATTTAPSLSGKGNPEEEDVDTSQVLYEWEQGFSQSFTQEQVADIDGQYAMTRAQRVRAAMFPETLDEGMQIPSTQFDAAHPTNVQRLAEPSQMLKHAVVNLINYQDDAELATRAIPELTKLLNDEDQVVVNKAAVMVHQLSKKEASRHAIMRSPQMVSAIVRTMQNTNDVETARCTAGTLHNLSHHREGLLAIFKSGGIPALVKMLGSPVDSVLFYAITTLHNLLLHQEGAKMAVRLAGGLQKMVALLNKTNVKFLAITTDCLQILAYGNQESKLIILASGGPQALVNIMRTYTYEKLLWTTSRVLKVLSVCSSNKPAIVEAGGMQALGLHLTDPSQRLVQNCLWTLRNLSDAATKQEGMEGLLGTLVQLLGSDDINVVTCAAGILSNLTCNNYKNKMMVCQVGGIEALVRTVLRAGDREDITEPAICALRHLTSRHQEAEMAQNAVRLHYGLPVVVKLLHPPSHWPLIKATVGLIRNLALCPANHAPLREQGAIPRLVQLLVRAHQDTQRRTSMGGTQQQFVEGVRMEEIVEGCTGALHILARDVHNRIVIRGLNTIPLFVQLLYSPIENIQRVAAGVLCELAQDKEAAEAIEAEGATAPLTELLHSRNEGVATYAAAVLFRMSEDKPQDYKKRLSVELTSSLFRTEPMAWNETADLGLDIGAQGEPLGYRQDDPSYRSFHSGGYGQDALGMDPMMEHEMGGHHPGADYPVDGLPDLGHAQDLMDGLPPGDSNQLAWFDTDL
UniProt Q9UJU2: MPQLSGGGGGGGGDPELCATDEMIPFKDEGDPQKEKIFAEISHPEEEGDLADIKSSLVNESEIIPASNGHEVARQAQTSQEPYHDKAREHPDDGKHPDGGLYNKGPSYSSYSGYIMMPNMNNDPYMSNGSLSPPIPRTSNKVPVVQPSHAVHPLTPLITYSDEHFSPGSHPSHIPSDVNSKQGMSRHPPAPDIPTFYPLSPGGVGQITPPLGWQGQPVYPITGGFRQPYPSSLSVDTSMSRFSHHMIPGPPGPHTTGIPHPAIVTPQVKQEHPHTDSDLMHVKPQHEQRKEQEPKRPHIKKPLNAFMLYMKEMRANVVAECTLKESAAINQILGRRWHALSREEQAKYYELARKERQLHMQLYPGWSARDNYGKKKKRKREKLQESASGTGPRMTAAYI

Columns and labels:
[1] = biological target: T1, hematopoietic pre-B cell leukemia transcription factor-interacting protein (HPIP), endogenous (human (endogenous in chondrocytes)) (UniProt Q96AQ6); assay: co-IP; subcellular separation of chondrocytes into cytoplasmic and nuclear fractions, then immunoprecipitation of endogenous proteins
T1 sequence: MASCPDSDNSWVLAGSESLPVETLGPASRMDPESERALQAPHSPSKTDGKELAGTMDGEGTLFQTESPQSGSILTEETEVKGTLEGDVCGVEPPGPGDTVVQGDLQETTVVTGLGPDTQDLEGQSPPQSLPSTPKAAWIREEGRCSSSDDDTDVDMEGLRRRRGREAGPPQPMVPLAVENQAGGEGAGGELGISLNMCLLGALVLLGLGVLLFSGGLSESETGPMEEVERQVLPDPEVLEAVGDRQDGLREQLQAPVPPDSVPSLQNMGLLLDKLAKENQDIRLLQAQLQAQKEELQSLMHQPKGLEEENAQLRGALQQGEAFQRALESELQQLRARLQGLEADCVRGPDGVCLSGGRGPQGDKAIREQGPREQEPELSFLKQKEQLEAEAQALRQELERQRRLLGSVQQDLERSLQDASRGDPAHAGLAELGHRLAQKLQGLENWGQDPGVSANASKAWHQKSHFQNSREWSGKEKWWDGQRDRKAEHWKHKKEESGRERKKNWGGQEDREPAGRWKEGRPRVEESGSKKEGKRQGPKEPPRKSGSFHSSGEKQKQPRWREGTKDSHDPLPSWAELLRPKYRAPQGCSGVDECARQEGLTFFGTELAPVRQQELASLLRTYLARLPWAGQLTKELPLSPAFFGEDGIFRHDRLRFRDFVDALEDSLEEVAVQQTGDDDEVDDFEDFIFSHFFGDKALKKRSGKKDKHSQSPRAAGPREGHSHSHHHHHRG

GST-HPIP (542–731) = biological target: T2, GST-HPIP (542–731) (UniProt Q96AQ6); assay: pull-down; GST or GST-HPIP fusion proteins on Sepharose (GST) beads incubated with lysates of OA chondrocytes expressing FLAG-LEF1; immunoblot of bound proteins; only the target purified
T2 sequence: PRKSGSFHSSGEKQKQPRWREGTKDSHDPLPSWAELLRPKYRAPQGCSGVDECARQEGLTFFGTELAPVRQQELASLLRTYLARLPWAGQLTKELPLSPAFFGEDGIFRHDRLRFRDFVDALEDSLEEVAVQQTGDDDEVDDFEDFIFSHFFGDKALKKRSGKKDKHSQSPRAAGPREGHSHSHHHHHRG

GST-HPIP (1–100) = biological target: T3, GST-HPIP (1–100) (UniProt Q96AQ6); assay: as above
T3 sequence: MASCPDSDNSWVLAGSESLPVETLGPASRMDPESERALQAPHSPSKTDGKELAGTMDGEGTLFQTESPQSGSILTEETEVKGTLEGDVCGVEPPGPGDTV

GST-HPIP (101–200) = biological target: T4, GST-HPIP (101–200) (UniProt Q96AQ6); assay: as above
T4 sequence: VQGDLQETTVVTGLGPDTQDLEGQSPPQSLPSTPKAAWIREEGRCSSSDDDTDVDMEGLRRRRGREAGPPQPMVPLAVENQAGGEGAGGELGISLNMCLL

GST-HPIP (221–361) = biological target: T5, GST-HPIP (221–361) (UniProt Q96AQ6); assay: as above
T5 sequence: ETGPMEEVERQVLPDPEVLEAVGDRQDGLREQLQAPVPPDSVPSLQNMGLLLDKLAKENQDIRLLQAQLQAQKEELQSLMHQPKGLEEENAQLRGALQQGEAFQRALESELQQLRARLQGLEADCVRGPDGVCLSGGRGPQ

[2] = biological target: β-catenin, endogenous (human (endogenous in chondrocytes)) (UniProt P35222); assay: co-IP; subcellular separation of chondrocytes into cytoplasmic and nuclear fractions, then immunoprecipitation of endogenous proteins

- binding [1]: binds
Substance: β-catenin, endogenous (from UniProt P35222 1-781)

- binding (GST-HPIP (542–731)): no binding
- binding (GST-HPIP (1–100)): no binding
- binding (GST-HPIP (101–200)): no binding
- binding (GST-HPIP (221–361)): no binding
Substance: FLAG-tagged LEF1 (from UniProt Q9UJU2 1-399)

- binding [2]: binds
Substance: lymphoid enhancer binding factor 1 (LEF1), endogenous (from UniProt Q9UJU2 1-399)
